# Measured values as given in US9574016B2, “Complex of bi-specific antibody and digoxigenin conjugated to a therapeutic or diagnostic agent” (Hoffmann-La Roche Inc., priority 2009, dated 2017).
# B1: LeY-DIG: bispecific LeY-DIG antibody, <LeY> sequence derived from monoclonal antibody B3; SEQ. ID NO. 57 and 58 (antibody)
# heavy: DVKLVESGGGLVQPGGSLKLSCATSGFTFSDYYMYWVRQTPEKRLEWVAYISNDDSSAAYSDTVKGRFTISRDNARNTLYLQMSRLKSEDTAIYYCARGLAWGAWFAYWGQGTLVTVSS[human IgG1 constant region not shown]GGGGSGGGGSQVQLVESGGGLVKPGGSLRLSCAASGFTFSDYAMSWIRQAPGKCLEWVSSINIGATYIYYADSVKGRFTISRDNAKNSLYLQMNSLRAEDTAVYYCARPGSPYEYDKAYYSMAYWGQGTTVTVSSGGGGSGGGGSGGGGSDIQMTQSPSSLSASVGDRVTITCRASQDIKNYLNWYQQKPGKAPKLLIYYSSTLLSGVPSRFSGSGSGTDFTLTISSLQPEDFATYYCQQSITLPPTFGCGTKVEIK
# light: DVLMTQSPLSLPVSLGDQASISCRSSQIIVHSNGNTYLEWYLQKPGQSPKLLIYKVSNRFSGVPDRFSGSGSGTDFTLKISRVEAEDLGVYYCFQGSHVPFTFGSGTKLEIKRTVAAPSVFIFPPSDEQLKSGTASVVCLLNNFYPREAKVQWKVDNALQSGNSQESVTEQDSKDSTYSLSSTLTLSKADYEKHKVYACEVTHQGLSSPVTKSFNRGEC
# modifications: humanized <LeY><DIG> heavy chain; humanized <LeY> light chain
# Assays:
# Assay type in all cases: cell-based, human
# [1] = system: Aha1 mRNA in LeY positive MCF7 cells; assay: bDNA assay of bispecific / DIG-siRNA / CPP-PolyArg complexes; conditions: MCF7, 3 h plus 21 hours
# Experimental: To analyze these complexes for their ability to specifically induce mRNA silencing in target cells, we compared targeted siRNA transfection of complexes that contained either a <LeY>-<DIG> and a <CD22>-<DIG> bispecific antibody, which were charged with a DIG labeled siRNA targeting either Aha1 or as a control luciferase. These complexes were formed by pre-incubation Dig-siRNA with <Dig> bispecific at room temperature for 30 minutes, followed by addition of the CPP-PolyArg (siRNA binding) entity to generate the full transfection competent complex. The entire complex was incubated for further 30 minutes at room temperature before adding to LeY positive MCF7 cells for a duration of three hours in Optimem medium. After subsequent incubation in growth medium for another 21 hours, the cells were lysed, and their mRNA content was analyzed using a bDNA assay.
# LeY positive MCF7 cells = assay: FACS analysis of DIG-eGFP delivery and internalization; conditions: 3.43 nM antibody
# Experimental: For these analyses we used LeY positive MCF7 cells and the bispecific <LeY>-<DIG> antibody. 3×10^5 cells were seeded per well of a 96-well-plate and used immediately. 3.43 nM of the <LeY>-<DIG> bispecific antibody in FACS buffer (PBS containing 5% FCS) was added to the wells. A <DIG> antibody at the same concentration was used as a non-targeting control. For detection of bound antibodies, a secondary Cy5 labeled antibody (Jackson Immunoresearch 709-176-1490; Cy5 F(ab′)2 Donkey anti-human IgG (H+L)) was added to a final concentration of 3.43 nM. After washing in FACS buffer the cells were incubated for one hour at 4° C. and then analyzed with the FACS canto II (BD Biosciences). To show <LeY>-<DIG> bispecific antibody mediated eGFP delivery to cells, 3.43 nM of the <LeY>-<DIG> bispecific antibody in FACS buffer (PBS containing 5% FCS) pre-incubated with a twofold molar amount of both [1:2] and [1:3] DIG-eGFP were added to the wells. After washing in FACS buffer the cells were analyzed with the FACS canto II (BD Biosciences).
# To analyze the ability of DIG-eGFP to monitor internalization, we performed FACS experiments. For these analyses we used LeY positive MCF7 cells and the bispecific <LeY>-<DIG> antibody. 3×10^5 cells were seeded per well of a 96-well-plate and used immediately. […] The cells were then analyzed with the FACS canto II (BD Biosciences).
# AHA1 mRNA in MCF-7 cells = assay: AHA1 mRNA knockdown by DIG-labeled siRNA-lipid nanoparticles (bDNA); conditions: no siRNA, only antibody (3.24 nM), 12 h
# Experimental: (iii) Complexation of DIG-labeled siRNA-lipid nanoparticles with <Target-DIG> bispecific antibodies. DIG-labeled siRNA-lipid nanoparticles containing 1 pmol of AHA1-, DIG-coupled AHA1-, or luciferase (LUC)-siRNAs were incubated with 3.24 pmol of bispecific antibodies directed against either the tumor-associated LewisY oligosaccharide and DIG <LeY-DIG> or against the sialic acid-binding transmembrane protein, CD22, and DIG <CD22-DIG> or with Dulbecco's Phosphate Buffered Saline (D-PBS) (Invitrogen, Carlsbad, Calif.) in a final volume of 200 μl Opti-MEM® vitrogen GmbH, Darmstadt, Germany) at RT for 30 min.
# (iv) Evaluation of targeting- and mRNA silencing properties of DIG-labeled siRNA-lipid nanoparticles in combination with <Target-DIG> bispecific antibodies in vitro; MCF-7 cells were seeded on a 96-well plate with a density of 15,000 cells/well in 80 μl medium (RPMI 1640 Medium, 10% fetal calf serum, 100 U/ml penicillin/streptomycin; Biochrom AG, Berlin, Germany) and incubated overnight in a cell incubator (37° C., 95% H2O, 5% CO2). […] After incubation, cells were lysed and AHA1- and GAPDH-mRNA concentrations were quantified using a commercially available bDNA-quantification system (Affymetrix Inc., Fremont, Calif.). […]
molecule,measurement,setting,value
B1,Aha1 mRNA silencing,[1],Reduction of Ahal mRNA was observed
same,binding / eGFP delivery to MCF7 cells (FACS),LeY positive MCF7 cells,clear binding to the LeY expressing MCF7 cells
same,relative AHA1-mRNA concentration,AHA1 mRNA in MCF-7 cells,94.6%
